# This list was built around the results that the source calls inconclusive (neither active nor inactive); the mix of calls is not that of the screen. For some assays here: Where the call is inconclusive, the potency comes from a doubtful curve fit. Activity calls are given as the source filed them. Unless noted, calls follow the shape of the dose curve; as a rule, active = well fitted curve in the direction sought with a large enough effect in the repeat runs; inconclusive = weak or mixed curves; inactive = no such curve, though single readings can be large; an effect the other way counts as inactive or inconclusive.
# How the values were obtained:
# [1] = A CellTox Green Cytotoxicity Assay to monitor cytotoxicity in HepG2 cells - 40 hour (AID 1224879); also: nearly all actives have a fitted effect of over 40% in size; also: potency is read from the fitted curve at half-maximal effect
# Outline: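 HepG2, 600 cells/well premixed w/ CellTox Green; 5 h settle, 37 C/5% CO2; pintool cpd add (DMSO); 37 C, 40 h; fluorescence read at 0, 8, 16, 24, 32, 40 h.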
# [2] = A CellTox Green Cytotoxicity Assay to monitor cytotoxicity in HEK293 cells - 8 hour (AID 1224884); also: nearly all actives have a fitted effect of over 35% in size; also: potency is read from the fitted curve at half-maximal effect
# Outline: (§1)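 Read-out: fluorescence of a cell-impermeant cyanine dye staining DNA of dead cells, proportional to cytotoxicity. HEK293, 600 cells/well with reagent, compound (23 nL DMSO) added after 5 h; reads at 0, 8, 16, 24, 32, 40 h.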
# [3] = qHTS assay to identify small molecule agonists of the farnesoid-X-receptor (FXR) signaling pathway - cell viability counter screen (AID 743218); conditions: FXR-bla HEK293T viability, CellTiter-Glo luminescence, 16 h; viability change, negative = cytotoxic: at 62.6 µM (top of the series) unless noted; also: nearly all actives have a fitted effect of over 45% in size; also: potency is read from the fitted curve at half-maximal effect
# Outline: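 Luminescence from CellTiter-Glo, read after 30 min at RT, reports viability of GeneBLAzer FXR-UAS-bla HEK 293T cells treated 16 h with compounds in the wells used for the beta-lactamase reporter.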
# [4] = qHTS RealTime-Glo MT Cell Viability Assay in HEK293 cells - 32 hour (AID 1224868); also: nearly all actives have a fitted effect of over 50% in size; also: potency is read from the fitted curve at half-maximal effect; as to activity change, negative = cytotoxic: top concentration of the series differs between compounds
# Outline: (§2)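 Luminescence generated by NanoLuc from substrate produced by living HEK293 cells served as the viability signal. Each value reflects the reading at its stated time point during continuous 40 h compound exposure at 37 C.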
# [5] = qHTS RealTime-Glo MT Cell Viability Assay in HEK293 cells - 16 hour (AID 1224872); also: nearly all actives have a fitted effect of over 50% in size; also: potency is read from the fitted curve at half-maximal effect; as to activity change, negative = cytotoxicity: top concentration of the series differs between compounds
# Outline: as §2
# [6] = qHTS RealTime-Glo MT Cell Viability Assay in HEK293 cells - 24 hour (AID 1224886); also: nearly all actives have a fitted effect of over 50% in size; also: potency is read from the fitted curve at half-maximal effect; as to activity change, negative = cytotoxicity: top concentration of the series differs between compounds
# Outline: as §2
# [7] = biological target: Estrogen receptor beta (Homo sapiens) (UniProt Q92731); test: qHTS assay to identify small molecule antagonists of the estrogen receptor beta (ER-beta) signaling pathway (AID 1259378; active = well fitted inhibition curve with a large enough effect in the signal ratio in the repeat runs, not every such curve was filed as active; inconclusive = weak or mixed curves, or effect the other way; inactive = no such curve, though single readings can be large or run the other way; the % refers to the signal ratio); conditions: ER-beta-UAS-bla HEK293T, beta-lactamase FRET ratio, 16 h; activity, negative = inhibition: at 92.4 µM (top of the series) unless noted
# Outline: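 ER-beta-UAS-bla HEK293T (GripTite) cells in 2% charcoal-stripped FBS medium were preincubated 6 hr at 37C, dosed with compound, then stimulated with 1 nM E2 (final) for 16 hr; beta-lactamase reporter read by B/G FRET fluorescence after 2 hr substrate loading.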
# [8] = qHTS assay for identifying genotoxic compounds that show differential cytotoxicity against isogenic chicken DT40 cell lines with known DNA damage response pathways - Rev3 mutant cell line (AID 743014); conditions: chicken DT40 Rev3-/- viability, CellTiter-Glo, 40 h; activity, negative = cytotoxicity: at 68.4 µM (top of the series) unless noted; also: nearly all actives have a fitted effect of over 55% in size; also: potency is read from the fitted curve at half-maximal effect
# [9] = qHTS assay for identifying genotoxic compounds that show differential cytotoxicity against isogenic chicken DT40 cell lines with known DNA damage response pathways - Rad54/Ku70 mutant cell line (AID 743015); conditions: DT40 Rad54/Ku70 mutant viability, CellTiter-Glo, 40 h; activity change, negative = cytotoxicity: at 66.8 µM (top of the series) unless noted; also: nearly all actives have a fitted effect of over 60% in size; also: potency is read from the fitted curve at half-maximal effect
# [10] = qHTS assay for small molecule activators of the heat shock response signaling pathway (AID 743210; active = well fitted activation curve with a large enough effect in the signal ratio in the repeat runs, with a control signal flat, not every such curve was filed as active; inconclusive = weak or mixed curves; the % refers to the signal ratio); conditions: HeLa HSE-bla reporter, beta-lactamase ratio, 5 h; activation: at 62.6 µM (top of the series) unless noted
# Outline: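 Heat shock element–beta-lactamase HeLa reporter cells; qHTS with compounds for 5 h at 37 C; detection by FRET substrate fluorescence after 2.5 h at RT.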
# [11] = qHTS assay to identify small molecule agonists of the estrogen receptor beta (ER-beta) signaling pathway - cell viability counter screen (AID 1259380); also: nearly all actives have a fitted effect of over 30% in size; also: potency is read from the fitted curve at half-maximal effect
# Outline: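 Luminescence read-out (CellTiter-Glo, 30 min, room temp) taken in the same wells as the beta-lactamase reporter assay; ER-beta-UAS-bla HEK293T cells exposed to DMSO-dissolved compounds for 16 hr at 37C in 2% charcoal-stripped FBS medium.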
# [12] = biological target: Thyrotropin receptor (Homo sapiens) (UniProt P16473); test: qHTS assay to identify small molecule antagonists of the thyroid stimulating hormone receptor (TSHR) signaling pathway (AID 1259385; calls by dose curve; also: nearly all actives have a fitted effect of over 20% in size; also: potency is read from the fitted curve at half-maximal effect); conditions: TSHR-HEK293 cAMP HTRF, TSH-stimulated antagonist mode; activity change, negative = inhibition: at 92.4 µM (top of the series) unless noted
# Outline: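 TSHR-HEK293 cells were plated and held 18 h at 37C/5% CO2, then given compound plus Ro20-1724 and stimulated with TSH at 1.5 ng/mL final. After 30 min at room temperature, cAMP was detected with cAMP-d2/anti-cAMP-cryptate (1 h) by fluorescence.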
# [13] = biological target: Progesterone receptor (Homo sapiens) (UniProt P06401); test: qHTS assay to identify small molecule antagonists of the progesterone receptor (PR) signaling pathway (AID 1346795; active = well fitted inhibition curve with a large enough effect in the signal ratio in the repeat runs, not every such curve was filed as active; inconclusive = weak or mixed curves; the % refers to the signal ratio); conditions: PR-UAS-bla HEK293T, beta-lactamase FRET ratio, 16 h; activity change, negative = inhibition: at 92.4 µM (top of the series) unless noted
# Outline: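 After 6 hr plating at 37C in 2% stripped-serum medium, PR-UAS-bla HEK293T cells got compounds, then 1 nM R5020. Sixteen hours later, LiveBLAzer substrate was applied for 2 hr at room temperature and fluorescence was recorded.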
# [14] = biological target: Estrogen receptor (Homo sapiens) (UniProt P03372); test: qHTS assay to identify small molecule agonists of the estrogen receptor alpha (ER-alpha) signaling pathway using the BG1 cell line (AID 743079); conditions: BG1Luc4E2 cells, ERE-luciferase agonist, 22 h; activation: at 70.3 µM (top of the series) unless noted; also: nearly all actives have a fitted effect of over 20% in size
# [15] = biological target: Peroxisome proliferator-activated receptor delta (Homo sapiens) (UniProt Q03181); test: qHTS assay to identify small molecule antagonists of the peroxisome proliferator-activated receptor delta (PPARd) signaling pathway (AID 743215; active = well fitted inhibition curve with a large enough effect in the signal ratio in the repeat runs, not every such curve was filed as active; inconclusive = weak or mixed curves, or effect the other way; inactive = no such curve, though single readings can be large or run the other way; the % refers to the signal ratio;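 also: cells stimulated with agonist L165041 at 300 nM final during compound exposure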); conditions: HEK293H PPARd-UAS-bla, beta-lactamase FRET ratio, antagonist, 17 h; ratio activity, negative = inhibition: at 62 µM (top of the series) unless noted
# Outline: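 HEK293H GeneBLAzer PPARd UAS-bla reporter cells; cpd + L165041 300 nM final, 17 h 37 C; LiveBLAzer B/G FRET substrate 2 h RT; fluorescence intensity read-out. Antagonist mode.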
# [16] = A CellTox Green Cytotoxicity Assay to monitor cytotoxicity in HEK293 cells - 16 hour (AID 1224888); also: nearly all actives have a fitted effect of over 35% in size; also: potency is read from the fitted curve at half-maximal effect
# Outline: as §1
# [17] = qHTS assay to identify small molecule antagonists of the vitamin D receptor (VDR) signaling pathway - cell viability counter screen (AID 743225); conditions: VDR-bla HEK293T viability, CellTiter-Glo luminescence, 16 h; viability change, negative = cytotoxic: at 61 µM (top of the series) unless noted; also: nearly all actives have a fitted effect of over 50% in size; also: potency is read from the fitted curve at half-maximal effect
# Outline: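 Cytotoxicity toward the VDR-bla HEK 293T line was scored by ATP-based CellTiter-Glo luminescence, read in the wells already used for the beta-lactamase readout after 16 h compound treatment under 3 nM 1-alpha,25-dihydroxyvitamin D3 stimulation.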
# % is scaled to controls: 0 for no effect and ±100 for the full control effect; tags tell the direction and shape of the fitted curve.
# Chain of UniProt Q03181 (Q03181 whole entry, looked up): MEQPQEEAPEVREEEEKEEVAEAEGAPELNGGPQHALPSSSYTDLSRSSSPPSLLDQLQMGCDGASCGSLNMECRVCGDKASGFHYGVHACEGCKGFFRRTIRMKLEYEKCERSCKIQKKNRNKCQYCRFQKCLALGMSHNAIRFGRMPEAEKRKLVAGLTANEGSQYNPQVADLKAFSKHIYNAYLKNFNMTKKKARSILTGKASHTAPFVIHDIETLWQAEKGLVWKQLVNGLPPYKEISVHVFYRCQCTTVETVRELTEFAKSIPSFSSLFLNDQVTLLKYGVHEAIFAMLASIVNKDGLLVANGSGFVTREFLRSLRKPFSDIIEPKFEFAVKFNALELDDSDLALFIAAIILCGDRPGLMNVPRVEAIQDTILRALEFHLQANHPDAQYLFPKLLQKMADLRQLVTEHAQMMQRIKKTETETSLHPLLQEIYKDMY
# Chain of UniProt P16473 (P16473 whole entry, looked up): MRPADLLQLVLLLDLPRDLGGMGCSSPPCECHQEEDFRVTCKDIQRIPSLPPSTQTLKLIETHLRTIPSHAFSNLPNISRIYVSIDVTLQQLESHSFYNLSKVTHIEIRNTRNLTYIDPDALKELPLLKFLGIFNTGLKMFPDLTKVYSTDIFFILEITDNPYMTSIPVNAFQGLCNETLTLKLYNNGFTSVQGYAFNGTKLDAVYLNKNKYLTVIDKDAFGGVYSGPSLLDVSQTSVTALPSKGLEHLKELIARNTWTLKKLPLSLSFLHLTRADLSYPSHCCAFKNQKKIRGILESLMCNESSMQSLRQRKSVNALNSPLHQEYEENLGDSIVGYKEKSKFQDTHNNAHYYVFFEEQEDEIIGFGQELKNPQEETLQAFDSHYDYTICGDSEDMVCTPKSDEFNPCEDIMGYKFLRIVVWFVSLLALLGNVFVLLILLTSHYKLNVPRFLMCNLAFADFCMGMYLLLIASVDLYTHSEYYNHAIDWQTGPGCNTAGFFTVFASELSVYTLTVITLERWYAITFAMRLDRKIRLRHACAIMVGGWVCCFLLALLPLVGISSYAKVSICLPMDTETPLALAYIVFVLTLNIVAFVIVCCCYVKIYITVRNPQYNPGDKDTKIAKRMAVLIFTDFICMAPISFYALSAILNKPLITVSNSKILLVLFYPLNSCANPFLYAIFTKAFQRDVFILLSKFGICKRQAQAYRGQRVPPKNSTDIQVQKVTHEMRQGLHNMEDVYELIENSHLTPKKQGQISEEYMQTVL
# Chain of UniProt P03372 (P03372 whole entry, looked up): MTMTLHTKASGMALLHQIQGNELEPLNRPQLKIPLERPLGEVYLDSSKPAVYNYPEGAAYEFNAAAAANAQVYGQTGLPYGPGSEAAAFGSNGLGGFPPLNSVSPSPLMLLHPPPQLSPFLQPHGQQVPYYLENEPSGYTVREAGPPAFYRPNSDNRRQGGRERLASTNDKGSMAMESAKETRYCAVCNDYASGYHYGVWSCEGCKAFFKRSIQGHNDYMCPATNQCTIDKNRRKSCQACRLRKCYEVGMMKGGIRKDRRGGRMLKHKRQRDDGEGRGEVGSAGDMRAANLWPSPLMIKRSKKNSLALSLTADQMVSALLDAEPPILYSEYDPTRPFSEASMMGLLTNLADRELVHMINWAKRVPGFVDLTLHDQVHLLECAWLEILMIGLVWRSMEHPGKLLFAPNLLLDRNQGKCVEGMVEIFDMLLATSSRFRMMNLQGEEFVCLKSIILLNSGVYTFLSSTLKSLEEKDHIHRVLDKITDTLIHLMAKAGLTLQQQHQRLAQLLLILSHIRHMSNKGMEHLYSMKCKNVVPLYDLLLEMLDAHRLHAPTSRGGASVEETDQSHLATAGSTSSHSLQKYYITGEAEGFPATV
# Chain of UniProt P06401 (P06401 whole entry, looked up): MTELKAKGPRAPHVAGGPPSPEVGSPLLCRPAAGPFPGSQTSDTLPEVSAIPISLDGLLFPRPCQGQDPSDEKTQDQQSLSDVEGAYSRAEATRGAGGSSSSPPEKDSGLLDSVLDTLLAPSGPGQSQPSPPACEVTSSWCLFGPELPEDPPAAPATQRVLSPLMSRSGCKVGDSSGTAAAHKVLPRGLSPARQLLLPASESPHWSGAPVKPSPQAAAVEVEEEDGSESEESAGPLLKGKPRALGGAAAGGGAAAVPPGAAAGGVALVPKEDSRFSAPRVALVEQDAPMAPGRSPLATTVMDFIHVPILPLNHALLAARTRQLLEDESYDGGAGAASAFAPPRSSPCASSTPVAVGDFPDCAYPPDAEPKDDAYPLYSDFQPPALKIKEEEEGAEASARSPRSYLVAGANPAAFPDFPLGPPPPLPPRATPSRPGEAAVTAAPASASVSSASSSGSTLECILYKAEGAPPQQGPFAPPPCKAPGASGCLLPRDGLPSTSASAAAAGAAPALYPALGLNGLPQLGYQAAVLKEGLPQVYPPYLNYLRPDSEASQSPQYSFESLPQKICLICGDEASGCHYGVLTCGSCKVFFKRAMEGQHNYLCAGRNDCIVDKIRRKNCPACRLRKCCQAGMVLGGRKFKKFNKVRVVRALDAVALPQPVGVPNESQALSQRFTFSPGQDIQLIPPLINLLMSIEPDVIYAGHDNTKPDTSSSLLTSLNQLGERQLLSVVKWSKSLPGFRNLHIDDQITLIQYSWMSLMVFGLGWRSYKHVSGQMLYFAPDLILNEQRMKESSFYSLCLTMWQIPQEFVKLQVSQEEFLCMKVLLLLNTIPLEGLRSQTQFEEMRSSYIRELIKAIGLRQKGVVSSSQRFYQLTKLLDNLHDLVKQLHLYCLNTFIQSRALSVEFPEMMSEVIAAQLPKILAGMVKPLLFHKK
# Chain of UniProt Q92731 (Q92731 whole entry, looked up): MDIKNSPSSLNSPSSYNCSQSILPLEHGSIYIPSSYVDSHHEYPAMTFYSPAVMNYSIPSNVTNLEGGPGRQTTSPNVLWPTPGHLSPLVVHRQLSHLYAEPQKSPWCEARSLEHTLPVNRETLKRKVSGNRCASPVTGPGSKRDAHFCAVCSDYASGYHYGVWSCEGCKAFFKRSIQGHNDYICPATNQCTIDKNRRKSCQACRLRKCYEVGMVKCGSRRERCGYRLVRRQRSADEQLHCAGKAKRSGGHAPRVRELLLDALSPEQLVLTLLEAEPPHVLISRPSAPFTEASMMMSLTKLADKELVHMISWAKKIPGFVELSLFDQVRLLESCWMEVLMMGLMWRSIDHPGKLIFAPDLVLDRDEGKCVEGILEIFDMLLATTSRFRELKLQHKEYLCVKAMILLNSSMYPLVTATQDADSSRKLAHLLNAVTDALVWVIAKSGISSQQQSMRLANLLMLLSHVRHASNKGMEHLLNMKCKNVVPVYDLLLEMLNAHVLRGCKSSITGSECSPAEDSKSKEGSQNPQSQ
smiles,measurement,setting,value
O=S1(=O)N=C(O)c2ccccc21,Potency,[1],"inconclusive: 2.2 µM [activator, full curve, poor fit]"
same,Potency,[2],inactive
CC(C)C[C@@H]1[C@H](c2ccccc2)OC(=O)N1CCCN1CCCCCC1,Potency,[3],inactive
same,Potency,[4],"inconclusive: 12 µM [cytotoxic, partial curve]"
same,Potency,[5],"inconclusive: 23.9 µM [cytotoxic, partial curve, poor fit]"
same,Potency,[6],"inconclusive: 21.3 µM [cytotoxic, partial curve]"
CC(C)CCO,Potency,[7],inactive
C=C(C)C(=O)OCCOC1CC2CC1C1C=CCC21 (stereo not given),Potency,[8],"inconclusive: 73.6 µM [cytotoxic, single point]"
same,Potency,[9],"inconclusive: 73.6 µM [cytotoxic, single point]"
same,Potency,[10],inactive
same,Potency,[11],"inconclusive: 29.3 µM [rising, single point]"
same,Potency,[12],"inconclusive: 0.656 µM [falling, single point]"
COC(=O)CC(C)=O,Potency,[8],inactive
same,Potency,[3],"inconclusive: 0.217 µM [rising, partial curve, poor fit]"
same,Potency,[13],inactive
CC(C=O)c1ccccc1 (stereo not given),Potency,[4],"inconclusive: 54.9 µM [cytotoxic, partial curve, poor fit]"
Oc1cn2c(n1)Nc1ccc(Cl)c(Cl)c1C2,Potency,[8],"inconclusive: 21.1 µM [rising, partial curve, poor fit]"
same,Potency,[14],inactive
same,"activity change, negative = cytotoxic",[4],inactive: 9.1% [at 15.8 µM]
same,"activity, negative = inhibition",[7],inactive: 0.533% [at 19 µM]
same,"activity change, negative = cytotoxicity",[11],inactive: 8.72% [at 19 µM]
O=C1CC[C@H](C(=O)N2CCCCC2)N1,"ratio activity, negative = inhibition",[15],inconclusive: 1.47%
same,Potency,[4],inactive
same,Potency,[11],"inconclusive: 26.6 µM [rising, partial curve, poor fit]"
NC(CO)C(=O)NNCc1ccc(O)c(O)c1O (stereo not given),Potency,[8],"inconclusive: 23.7 µM [rising, partial curve, poor fit]"
same,Potency,[16],inactive
same,"activity change, negative = inhibition",[12],inconclusive: 7.67% [at 42.5 µM]
CC(C)(C)NCC(O)c1cc(O)cc(O)c1 (stereo not given),Potency,[8],"inconclusive: 33.5 µM [rising, partial curve, poor fit]"
same,Potency,[3],"inconclusive: 0.0944 µM [rising, full curve, poor fit]"
same,Potency,[17],active: 0.0019 µM
same,Potency,[13],inactive
COc1ccc(C#N)cc1,Potency,[11],"inconclusive: 68.6 µM [rising, partial curve, poor fit]"
CN(C)CCN(C)CCN(C)C,Potency,[9],inactive
same,Potency,[14],inactive
same,"ratio activity, negative = inhibition",[15],inconclusive: -31.2%
same,Potency,[5],inactive
same,"activity change, negative = inhibition",[12],inconclusive: -2.06%
c1cnc(N2CCN(Cc3ccc4c(c3)OCO4)CC2)nc1,Potency,[3],"inconclusive: 0.0119 µM [rising, full curve, poor fit]"
same,"viability change, negative = cytotoxic",[17],inconclusive: 1.61% [cytotoxic]
same,Potency,[12],inactive
C1=CCCC1,Potency,[4],"inconclusive: 61.6 µM [rising, single point]"
same,Potency,[5],"inconclusive: 54.9 µM [rising, single point]"
same,Potency,[2],"inconclusive: 54.9 µM [activator, single point]"
same,Potency,[6],"inconclusive: 54.9 µM [rising, single point]"
same,Potency,[16],"inconclusive: 54.9 µM [activator, single point]"
CCCCCCC1(C)CCC(=O)O1 (stereo not given),"ratio activity, negative = inhibition",[15],inconclusive: 32%
same,Potency,[3],inactive
same,Potency,[17],inactive
same,Potency,[1],inactive
same,Potency,[6],inactive

# — PubChem BioAssay (Tox21)
